{"sequences": {"note": "By UniProt entry, the sequences of proteins in these tests, tags left out.", "UniProt Q15388": "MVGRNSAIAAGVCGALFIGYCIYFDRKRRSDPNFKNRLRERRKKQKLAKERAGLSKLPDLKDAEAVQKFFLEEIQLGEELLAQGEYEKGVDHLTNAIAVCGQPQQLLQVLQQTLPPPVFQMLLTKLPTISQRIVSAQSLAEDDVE"}, "source": "paper PMC8605320", "key": {"[1]": {"target": "T1, SPTLC2^FLAG (WT-SPTLC2 with C-terminal 3xFLAG), in Flp-In T-REx 293 SPTLC2-KO cells (human) (UniProt O15270)", "T1 sequence": "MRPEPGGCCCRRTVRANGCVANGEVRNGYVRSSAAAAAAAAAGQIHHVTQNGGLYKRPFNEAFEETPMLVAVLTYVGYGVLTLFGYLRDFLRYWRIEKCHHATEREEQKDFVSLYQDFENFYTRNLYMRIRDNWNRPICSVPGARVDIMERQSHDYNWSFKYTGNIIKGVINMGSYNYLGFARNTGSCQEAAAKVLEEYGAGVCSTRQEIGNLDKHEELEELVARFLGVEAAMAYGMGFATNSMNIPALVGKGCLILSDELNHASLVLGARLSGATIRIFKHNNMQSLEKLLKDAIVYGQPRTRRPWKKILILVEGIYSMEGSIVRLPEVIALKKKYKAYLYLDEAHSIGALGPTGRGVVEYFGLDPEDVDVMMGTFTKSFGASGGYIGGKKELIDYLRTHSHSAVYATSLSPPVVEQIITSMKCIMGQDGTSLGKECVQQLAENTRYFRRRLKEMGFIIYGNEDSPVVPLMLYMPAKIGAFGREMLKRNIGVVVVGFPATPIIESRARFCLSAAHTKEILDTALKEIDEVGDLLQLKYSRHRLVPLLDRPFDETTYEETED", "test": "co-IP; heavy membrane fractions of Flp-In T-REx 293 SPTLC2-KO cells with or without WT-, ER- or OM-SPTLC2^FLAG, solubilised with digitonin, FLAG-immunoprecipitation on anti-FLAG M2 beads, eluted with Laemmli buffer, immunoblotting"}, "[2]": {"target": "T2, OM-SPTLC2^FLAG (mAKAP1 1-31 + linker fused to SPTLC2 103-562, C-terminal 3xFLAG), in Flp-In T-REx 293 SPTLC2-KO cells (UniProt O15270)", "T2 sequence": "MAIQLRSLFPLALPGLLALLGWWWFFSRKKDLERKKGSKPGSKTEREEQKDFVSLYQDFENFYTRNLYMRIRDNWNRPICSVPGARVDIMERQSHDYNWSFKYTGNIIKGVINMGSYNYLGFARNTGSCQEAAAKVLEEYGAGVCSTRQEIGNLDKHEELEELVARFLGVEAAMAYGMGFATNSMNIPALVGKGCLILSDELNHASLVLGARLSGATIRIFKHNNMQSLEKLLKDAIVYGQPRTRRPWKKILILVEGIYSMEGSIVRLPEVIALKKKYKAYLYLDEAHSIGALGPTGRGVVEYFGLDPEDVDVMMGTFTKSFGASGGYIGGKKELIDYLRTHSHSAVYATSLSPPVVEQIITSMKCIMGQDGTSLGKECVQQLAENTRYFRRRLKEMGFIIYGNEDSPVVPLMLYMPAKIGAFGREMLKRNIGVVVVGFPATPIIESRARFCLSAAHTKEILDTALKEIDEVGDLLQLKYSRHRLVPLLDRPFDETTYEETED", "test": "co-IP; heavy membrane fractions of Flp-In T-REx 293 SPTLC2-KO cells with or without WT-, ER- or OM-SPTLC2^FLAG, solubilised with digitonin, FLAG-immunoprecipitation on anti-FLAG M2 beads, eluted with Laemmli buffer, immunoblotting"}, "[3]": {"target": "T3, ER-SPTLC2^FLAG (SPTLC1 1-49 fused to SPTLC2 103-562, C-terminal 3xFLAG), in Flp-In T-REx 293 SPTLC2-KO cells (human) (UniProt O15269+O15270)", "T3 sequence": "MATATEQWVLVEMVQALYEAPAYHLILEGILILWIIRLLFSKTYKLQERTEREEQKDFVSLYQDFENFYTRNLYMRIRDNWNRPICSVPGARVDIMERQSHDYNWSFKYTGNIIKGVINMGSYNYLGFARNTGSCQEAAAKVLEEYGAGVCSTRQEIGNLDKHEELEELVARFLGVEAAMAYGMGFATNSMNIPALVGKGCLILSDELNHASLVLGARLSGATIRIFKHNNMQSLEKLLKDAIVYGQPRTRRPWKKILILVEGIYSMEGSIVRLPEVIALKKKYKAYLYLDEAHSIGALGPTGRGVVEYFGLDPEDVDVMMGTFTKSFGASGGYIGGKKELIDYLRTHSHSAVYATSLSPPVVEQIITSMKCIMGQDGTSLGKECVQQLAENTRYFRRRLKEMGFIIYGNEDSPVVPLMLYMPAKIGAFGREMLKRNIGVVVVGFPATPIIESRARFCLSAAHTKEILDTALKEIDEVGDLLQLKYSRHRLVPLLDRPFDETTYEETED", "test": "co-IP; heavy membrane fractions of Flp-In T-REx 293 SPTLC2-KO cells with or without WT-, ER- or OM-SPTLC2^FLAG, solubilised with digitonin, FLAG-immunoprecipitation on anti-FLAG M2 beads, eluted with Laemmli buffer, immunoblotting"}, "[4]": {"target": "T1, SPTLC2^FLAG (WT-SPTLC2 with C-terminal 3xFLAG), in Flp-In T-REx 293 SPTLC2-KO cells (human)", "test": "native gel or EMSA; blue native PAGE (4-13% gradient gel) of digitonin-solubilised heavy membrane fractions from Flp-In T-REx 293 control, SPTLC1-KO, SPTLC2-KO and rescue cells; immunoblotted with anti-SPTLC1 and anti-SPTLC2"}, "[5]": {"target": "T4, SPTLC2, endogenous in Flp-In T-REx 293 cells (human (endogenous in Flp-In T-REx 293)) (UniProt O15270)", "T4 sequence": "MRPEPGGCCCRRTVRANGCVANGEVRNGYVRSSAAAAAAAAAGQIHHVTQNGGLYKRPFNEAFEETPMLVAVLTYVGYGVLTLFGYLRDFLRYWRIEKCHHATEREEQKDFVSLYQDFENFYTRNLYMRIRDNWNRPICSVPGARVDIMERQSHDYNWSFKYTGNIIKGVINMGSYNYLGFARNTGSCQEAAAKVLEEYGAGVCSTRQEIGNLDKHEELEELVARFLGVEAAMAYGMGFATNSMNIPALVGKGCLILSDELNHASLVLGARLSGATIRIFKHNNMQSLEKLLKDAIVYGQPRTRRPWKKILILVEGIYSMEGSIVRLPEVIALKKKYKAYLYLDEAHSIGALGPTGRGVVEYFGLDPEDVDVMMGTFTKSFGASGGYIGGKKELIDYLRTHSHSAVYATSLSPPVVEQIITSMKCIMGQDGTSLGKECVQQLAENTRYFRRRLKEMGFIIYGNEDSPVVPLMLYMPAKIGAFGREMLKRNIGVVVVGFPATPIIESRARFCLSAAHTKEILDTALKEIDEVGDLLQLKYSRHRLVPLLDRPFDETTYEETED", "test": "native gel or EMSA; blue native PAGE (4-13% gradient gel) of digitonin-solubilised heavy membrane fractions from Flp-In T-REx 293 control, SPTLC1-KO, SPTLC2-KO and rescue cells; immunoblotted with anti-SPTLC1 and anti-SPTLC2"}, "[6]": {"target": "T5, SPTLC2, endogenous in mouse liver (mouse (endogenous in liver)) (UniProt P97363)", "T5 sequence": "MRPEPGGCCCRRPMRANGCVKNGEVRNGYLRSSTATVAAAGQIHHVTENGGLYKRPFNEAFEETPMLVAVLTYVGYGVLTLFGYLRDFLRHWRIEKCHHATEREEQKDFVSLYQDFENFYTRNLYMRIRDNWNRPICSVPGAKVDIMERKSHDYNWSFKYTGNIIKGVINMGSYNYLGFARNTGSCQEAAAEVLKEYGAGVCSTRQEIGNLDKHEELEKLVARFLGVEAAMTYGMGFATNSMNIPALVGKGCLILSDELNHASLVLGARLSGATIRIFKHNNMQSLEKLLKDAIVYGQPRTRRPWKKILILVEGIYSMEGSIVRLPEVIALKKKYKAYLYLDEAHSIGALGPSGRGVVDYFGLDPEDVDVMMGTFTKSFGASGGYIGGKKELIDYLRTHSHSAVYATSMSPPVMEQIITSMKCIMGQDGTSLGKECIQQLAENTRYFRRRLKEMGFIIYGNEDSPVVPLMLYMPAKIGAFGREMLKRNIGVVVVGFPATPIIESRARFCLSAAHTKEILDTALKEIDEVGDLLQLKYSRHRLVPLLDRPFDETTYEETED", "test": "native gel or EMSA; blue native PAGE of mouse liver light and heavy membrane fractions; immunoblotted with anti-SPTLC1 and anti-SPTLC2"}}, "note": "Results are given in words; binding and its absence hold for the method and conditions named. For some assays here: In cells and extracts the contact can be indirect. Some binding calls cover weakened binding; strength is not graded here. For some assays here: Tags and fused reporters may be left off the sequences shown.", "data": [{"molecule": "TOMM20 (from UniProt Q15388 1-145)", "values": [{"measurement": "binding", "setting": "[1]", "result": "binds"}, {"measurement": "binding", "setting": "[2]", "result": "binds"}, {"measurement": "binding", "setting": "[3]", "result": "no binding"}]}, {"molecule": "TOMM40 (protein, UniProt O96008 1-361) MGNVLAASSPPAGPPPPPAPALVGLPPPPPSPPGFTLPPLGGSLGAGTSTSRSSERTPGAATASASGAAEDGACGCLPNPGTFEECHRKCKELFPIQMEGVKLTVNKGLSNHFQVNHTVALSTIGESNYHFGVTYVGTKQLSPTEAFPVLVGDMDNSGSLNAQVIHQLGPGLRSKMAIQTQQSKFVNWQVDGEYRGSDFTAAVTLGNPDVLVGSGILVAHYLQSITPCLALGGELVYHRRPGEEGTVMSLAGKYTLNNWLATVTLGQAGMHATYYHKASDQLQVGVEFEASTRMQDTSVSFGYQLDLPKANLLFKGSVDSNWIVGATLEKKLPPLPLTLALGAFLNHRKNKFQCGFGLTIG", "values": [{"measurement": "binding", "setting": "[1]", "result": "binds"}, {"measurement": "binding", "setting": "[2]", "result": "binds"}, {"measurement": "binding", "setting": "[3]", "result": "no binding"}]}, {"molecule": "GK (protein, UniProt P32189 1-559) MAASKKAVLGPLVGAVDQGTSSTRFLVFNSKTAELLSHHQVEIKQEFPREGWVEQDPKEILHSVYECIEKTCEKLGQLNIDISNIKAIGVSNQRETTVVWDKITGEPLYNAVVWLDLRTQSTVESLSKRIPGNNNFVKSKTGLPLSTYFSAVKLRWLLDNVRKVQKAVEEKRALFGTIDSWLIWSLTGGVNGGVHCTDVTNASRTMLFNIHSLEWDKQLCEFFGIPMEILPNVRSSSEIYGLMKISHSVKAGALEGVPISGCLGDQSAALVGQMCFQIGQAKNTYGTGCFLLCNTGHKCVFSDHGLLTTVAYKLGRDKPVYYALEGSVAIAGAVIRWLRDNLGIIKTSEEIEKLAKEVGTSYGCYFVPAFSGLYAPYWEPSARGIICGLTQFTNKCHIAFAALEAVCFQTREILDAMNRDCGIPLSHLQVDGGMTSNKILMQLQADILYIPVVKPSMPETTALGAAMAAGAAEGVGVWSLEPEDLSAVTMERFEPQINAEESEIRYSTWKKAVMKSMGWVTTQSPESGDPSIFCSLPLGFFIVSSMVMLIGARYISGIP", "values": [{"measurement": "binding", "setting": "[1]", "result": "binds"}]}, {"molecule": "SPTLC1, endogenous in Flp-In T-REx 293 cells (enzyme, UniProt O15269 1-473) MATATEQWVLVEMVQALYEAPAYHLILEGILILWIIRLLFSKTYKLQERSDLTVKEKEELIEEWQPEPLVPPVPKDHPALNYNIVSGPPSHKTVVNGKECINFASFNFLGLLDNPRVKAAALASLKKYGVGTCGPRGFYGTFDVHLDLEDRLAKFMKTEEAIIYSYGFATIASAIPAYSKRGDIVFVDRAACFAIQKGLQASRSDIKLFKHNDMADLERLLKEQEIEDQKNPRKARVTRRFIVVEGLYMNTGTICPLPELVKLKYKYKARIFLEESLSFGVLGEHGRGVTEHYGINIDDIDLISANMENALASIGGFCCGRSFVIDHQRLSGQGYCFSASLPPLLAAAAIEALNIMEENPGIFAVLKEKCGQIHKALQGISGLKVVGESLSPAFHLQLEESTGSREQDVRLLQEIVDQCMNRSIALTQARYLEKEEKCLPPPSIRVVVTVEQTEEELERAASTIKEVAQAVLL", "values": [{"measurement": "binding", "setting": "[4]", "result": "binds"}, {"measurement": "binding", "setting": "[5]", "result": "binds"}, {"measurement": "binding", "setting": "[1]", "result": "binds"}, {"measurement": "binding", "setting": "[2]", "result": "binds"}, {"measurement": "binding", "setting": "[3]", "result": "binds"}]}, {"molecule": "SPTLC1, untagged, re-expressed in Flp-In T-REx 293 SPTLC1-KO cells (enzyme, UniProt O15269 1-473) MATATEQWVLVEMVQALYEAPAYHLILEGILILWIIRLLFSKTYKLQERSDLTVKEKEELIEEWQPEPLVPPVPKDHPALNYNIVSGPPSHKTVVNGKECINFASFNFLGLLDNPRVKAAALASLKKYGVGTCGPRGFYGTFDVHLDLEDRLAKFMKTEEAIIYSYGFATIASAIPAYSKRGDIVFVDRAACFAIQKGLQASRSDIKLFKHNDMADLERLLKEQEIEDQKNPRKARVTRRFIVVEGLYMNTGTICPLPELVKLKYKYKARIFLEESLSFGVLGEHGRGVTEHYGINIDDIDLISANMENALASIGGFCCGRSFVIDHQRLSGQGYCFSASLPPLLAAAAIEALNIMEENPGIFAVLKEKCGQIHKALQGISGLKVVGESLSPAFHLQLEESTGSREQDVRLLQEIVDQCMNRSIALTQARYLEKEEKCLPPPSIRVVVTVEQTEEELERAASTIKEVAQAVLL", "values": [{"measurement": "binding", "setting": "[5]", "result": "binds"}]}, {"molecule": "SPTLC1, endogenous in mouse liver (enzyme, UniProt O35704 1-473) MATVAEQWVLVEMVQALYEAPAYHLILEGILILWIIRLVFSKTYKLQERSDLTAKEKEELIEEWQPEPLVPPVSKNHPALNYNIVSGPPTHNIVVNGKECVNFASFNFLGLLANPRVKATAFSSLKKYGVGTCGPRGFYGTFDVHLDLEERLAKFMKTEEAIIYSYGFSTIASAIPAYSKRGDIIFVDSAACFAIQKGLQASRSDIKLFKHNDVADLERLLKEQEIEDQKNPRKARVTRRFIVVEGLYMNTGTICPLPELVKLKYKYKARIFLEESLSFGVLGEHGRGVTEHYGISIDDIDLISANMENALASVGGFCCGRSFVVDHQRLSGQGYCFSASLPPLLAAAAIEALNIMEENPDIFAVLKKKCQNIHKSLQGVSGLKVVGESLSPALHLQLEESTGSREKDVKLLQAIVDQCMDKGIALTQARYLDKEEKCLPPPSIRVVVTVEQTEEELQRAASTIREAAQAVLL", "values": [{"measurement": "binding", "setting": "[6]", "result": "binds"}]}]}
